Reference: patent publication US10364280B2, “Polypeptide” (AFFIBODY AB, priority 2015, dated 2019)

Tests used:
mPD-L1 = biological target: T1, mPD-L1 (Mus musculus, UniProt Q9EP73); experiment: Biacore specificity analysis on immobilized mPD-L1; type: binding; settings: His6-tagged Z variants
T1 construct: purchased R&D Systems 1019-B7
Experimental: (§1) Kinetic constants (ka and kd) and affinities (KD) for hPD-L1 were determined for the His6-tagged Z variants Z13166 (SEQ ID NO:1), Z13178 (SEQ ID NO:2), Z13359 (SEQ ID NO:3) and Z13398 (SEQ ID NO:4) using a Biacore 2000 instrument (GE Healthcare). All four Z variants were also tested for binding against the sequence-related proteins hPD-L2, hB7-H3, hB7-H4. Z13166 and Z13398 were further analyzed against mPD-L1 (mouse PD-L1 Fc Chimera, R&D Systems, cat. no. 1019-B7) and Z13178 and Z13359 were analyzed against rhesus monkey PD-L1 (RhPD-L1; rhesus PD-L1/Fc Chimera, Sino Biological Inc., cat. no. 90251-C02H)
hPD-L1, hPD-L2, hB7-H3, hB7-H4, mPD-L1 and RhPD-L1 were immobilized in separate flow cells on the carboxylated dextran layer of different CM5 chip surfaces (GE Healthcare, cat. no. BR100012). […] In a first set of experiments, in which Z13166 and Z13398 were analyzed, the ligand immobilization levels on the surfaces were 468-894 RU for hPD-L1, 482 RU for mPD-L1, 537-742 RU for hPD-L2, 383 RU for hB7-H3, and 538-659 RU for hB7-H4. […] Kinetic constants were calculated from the sensorgrams using the Langmuir 1:1 model of BiaEvaluation software 4.1 (GE Healthcare). In a second set of experiments, in which Z13178 and Z13359 were analyzed, the ligand immobilization levels on the surfaces were 1030 RU for hPD-L1, 1060 RU for RhPD-L1, 1070 RU for hPD-L2, 1090 RU for hB7-H3, and 770 RU for hB7-H4. […]

[1] = tested on: PD-L1 expressing THP-1 cells; experiment: Cell binding analysis by FACS; type: cell-based; settings: THP-1 cells stimulated with IFNγ overnight; His-tagged Z variants 10 μg/ml, antibody 1 μg/ml; normalized against a positive control Z variant
Experimental: The potential of two selected Z variants, Z13166 (SEQ ID NO:1) and Z13398 (SEQ ID NO:4), to bind PD-L1 expressing cells was investigated using Fluorescence Activated Cell Sorting (FACS). THP-1 cells, cultivated in RPMI (Lonza, cat. no. BE12-702F) containing 10% FBS, were stimulated with 10 ng/ml IFNg (R&D Systems, cat. no. 285-IF-100) overnight which results in up-regulation of PD-L1. 150,000 stimulated and unstimulated cells were pipetted per well of a v-bottomed 96 well plate (Nunc, cat. no. 277143) and the cells in the plate were subsequently pelleted at 400 g for 3 min at RT. The supematants were removed and the cells were resuspended in 100 μl PBS plus 2.5% FBS (staining buffer) containing 10 μg/ml of the different His-tagged Z variants. […] Cells incubated with buffer alone were used as negative controls. The cells were incubated for 1 h at 8° C. in the dark, washed twice with 100 μl staining buffer and resuspended in 100 μl of staining buffer containing a goat anti-Z antibody (produced in house) at a concentration of. 5 μg/ml. Cells stained with the positive control were treated with buffer only. […] Data from 10,000 cells were obtained using a FACS Calibur (Beckman Coulter) and the data was analyzed using Flowing software 2.5.0 (Turku University). Mean fluorescence intensity (MFI) was used as a read out of binding capacity.

RhPD-L1 = biological target: T2, RhPD-L1 (Macaca mulatta, UniProt H9Z833); experiment: Biacore kinetic analysis on immobilized RhPD-L1; type: binding, rhesus monkey; settings: His6-tagged Z variants
T2 construct: purchased Sino Biological Inc. 90251-C02H
Experimental: as §1
hPD-L1, hPD-L2, hB7-H3, hB7-H4, mPD-L1 and RhPD-L1 were immobilized in separate flow cells on the carboxylated dextran layer of different CM5 chip surfaces (GE Healthcare, cat. no. BR100012). The immobilization was performed using amine coupling chemistry according to the manufacturers protocol and using HBS-EP (0.01 M HEPES pH 7.4, 0.15 M NaCl, 3 mM EDTA, 0.005% v/v Surfactant P20, GE Healthcare, cat. no. BR100188) as running buffer. In a first set of experiments, in which Z13166 and Z13398 were analyzed, the ligand immobilization levels on the surfaces were 468-894 RU for hPD-L1, 482 RU for mPD-L1, 537-742 RU for hPD-L2, 383 RU for hB7-H3, and 538-659 RU for hB7-H4. One flow cell surface on each chip was activated and deactivated for use as blank during analyte injections. In the kinetic experiment, HBS-EP was used as running buffer and the flow rate was 50 μl/min. The analytes, i.e. the Z variants, were each diluted in HBS-EP buffer within a concentration range of 1000 to 0.01 nM and injected for 5 min, followed by dissociation in running buffer for 15-25 min. After dissociation, the surfaces were regenerated with one or two injections of 0.1% SDS. Kinetic constants were calculated from the sensorgrams using the Langmuir 1:1 model of BiaEvaluation software 4.1 (GE Healthcare). In a second set of experiments, in which Z13178 and Z13359 were analyzed, the ligand immobilization levels on the surfaces were 1030 RU for hPD-L1, 1060 RU for RhPD-L1, 1070 RU for hPD-L2, 1090 RU for hB7-H3, and 770 RU for hB7-H4. Analyses were performed essentially as described above for the first set of experiments, but using a flow rate of 30 μl/min and the Z variants were injected at concentrations of 5 and 50 nM over chips immobilized with hPD-L1 and RhPD-L1, and at a concentration of 500 nM over immobilized hPD-L2, hB7-H3 and hB7-H4,

[2] = Circular dichroism (CD) spectroscopy with variable temperature measurement; type: physicochemical; settings: CD at 221 nm, VTM; Z15171-Cys in HEPES/EDTA pH 7.2, 20 to 90° C.; His-tagged Z13178, Z13398 in PBS, to 80° C.
Experimental: The Z variant Z15171-Cys (SEQ ID NO:5), was diluted to 0.5 mg/ml in 20 mM HEPES, 1 mM EDTA, pH 7.2. A CD spectrum at 250-195 nm was obtained at 20° C. In addition, a variable temperature measurement (VTM) was performed to determine the melting temperature (Tm). In the VTM, the absorbance was measured at 221 nm while the temperature was raised from 20 to 90° C., with a temperature slope of 5° C./min. A new CD spectrum was obtained at 20° C. after the heating procedure in order to study the refolding ability of the Z variants. The CD measurements were performed on a Jasco J-810 spectropolarimeter (Jasco Scandinavia AB) using a cell with an optical path length of 1 mm. The His-tagged Z variants Z13178 (SEQ ID NO:2) and Z13398 (SEQ ID NO:4) were analyzed by CD spectroscopy as described above, but with the exceptions that PBS was used as analysis buffer and the temperature was raised to 80° C. in the VTM.

[3] = approximate, based on one concentration, 5 nM

T2 sequence (H9Z833 19-239 limits assumed): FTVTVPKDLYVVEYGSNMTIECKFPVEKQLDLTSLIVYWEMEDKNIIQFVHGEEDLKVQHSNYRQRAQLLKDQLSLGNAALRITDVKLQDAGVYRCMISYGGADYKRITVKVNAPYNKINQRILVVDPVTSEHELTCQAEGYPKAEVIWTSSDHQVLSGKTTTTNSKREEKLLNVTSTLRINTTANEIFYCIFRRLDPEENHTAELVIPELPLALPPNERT
T1 sequence (Q9EP73 19-290): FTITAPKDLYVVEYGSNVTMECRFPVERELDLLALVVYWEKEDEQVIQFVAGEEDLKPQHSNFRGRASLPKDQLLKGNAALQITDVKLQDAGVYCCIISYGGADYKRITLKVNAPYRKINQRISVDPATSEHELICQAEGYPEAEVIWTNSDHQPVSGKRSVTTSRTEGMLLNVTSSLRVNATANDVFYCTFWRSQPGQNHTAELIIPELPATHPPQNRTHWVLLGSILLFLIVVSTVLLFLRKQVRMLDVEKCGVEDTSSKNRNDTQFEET

Substance: Z13166: PD-L1 binding Z variant, 58 amino acid residues, SEQ ID NO:1; tested as ABD fusion or His6-tagged (VDAKYAKERTVAVWEIVQLPNLTAWQKGAFINKLHDDPSQSSELLSEAKKLNDSQAPK; Engineered PD-L1 binding polypeptide)
- binding to mouse PD-L1 in Biacore (mPD-L1): no binding was detected
- MFI (normalized) [1]: 0.76

Substance: Z13359: PD-L1 binding Z variant, 58 amino acid residues, SEQ ID NO:3; tested as ABD fusion or His6-tagged (VDAKYAKERTIAVWEIMDLPNLTSWQRGAFIDKLHDDPSQSSELLSEAKKLNDSQAPK; Engineered PD-L1 binding polypeptide)
- binding to RhPD-L1 in Biacore (RhPD-L1): showed binding
- Kd (RhPD-L1; [3]): 20 nM
- ka (1/Ms) RhPD-L1 (RhPD-L1; [3]): 490000 M⁻¹ s⁻¹
- kd (1/s) RhPD-L1 (RhPD-L1; [3]): 0.0097 s⁻¹

Substance: Z13398: PD-L1 binding Z variant, 58 amino acid residues, SEQ ID NO:4; tested as ABD fusion or His6-tagged (VDAKYAKERTMATWEIVQLPNLTARQKGAFIWKLHDDPSQSSELLSEAKKLNDSQAPK; Engineered PD-L1 binding polypeptide)
- binding to mouse PD-L1 in Biacore (mPD-L1): no binding was detected
- MFI (normalized) [1]: 0.94
- Tm (° C.) [2]: 53 °C
